Results published in PubChem BioAssay AID686979 (National Center for Advancing Translational Sciences (NCATS), 2013).
In all, about 420,000 compounds went through this assay and about 50,000 (12%) were called active. This list was built around the results that the source calls inconclusive (neither active nor inactive); the mix of calls is not that of the screen. Calls follow the shape of the dose curve; as a rule, active = well fitted inhibition curve with a large enough effect; inconclusive = small, poorly fitted or top-dose-only effect; inactive = flat fitted curve, though single readings scatter. Potencies of inconclusive entries are left out as doubtful fits.

Assay: qHTS for Inhibitors of human tyrosyl-DNA phosphodiesterase 1 (TDP1): qHTS in cells in presence of CPT; also: nearly all actives have a fitted effect of over 55% in size
Settings: chicken DT40 Tdp1-/-;hTDP1 cells + 20 nM CPT, ATP luminescence, 48 h; series mostly up to 46.2 µM
Summary of the method: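 Chicken DT40 Tdp1-/- cells stably complemented with human TDP1 were seeded at 400 cells/well in medium containing 20 nM camptothecin, exposed to pin-transferred compounds, and grown at 37 °C for at least 48 hr. Viability was read as ATP luminescence.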
Potency is read from the fitted curve at half-maximal effect; tags tell the direction and shape of the fitted curve.

Row | SMILES | Potency
1 | CCCc1cc(=O)oc2c(C)c(O[C@@H]3O[C@H](CO)[C@@H](O)[C@H](O)[C@H]3O)ccc12 | inconclusive [inhibitor, full curve]
2 | Cc1nnc(Nc2ccc(F)cc2)c2ccccc12 | inactive
3 | O=C(CSc1nnc(CCCO)n1-c1ccccc1)NCCc1ccccc1 | inactive
4 | COc1ccc([C@@H]2[C@@H]3C(=O)N(C(C)(C)C)C(=O)[C@@H]3[C@]3(Cc4ccccc4)C(=O)N(c4ccccc4)C(=O)N23)cc1 | inactive
5 | CCCc1nc2c(C)cc(Br)cn2c1Cc1ccsc1 | inconclusive [inhibitor, single point]
6 | COc1ccc(N2CCN(C(=O)C3CCN(C(=O)c4ccccc4Cl)CC3)CC2)cc1 | inactive
7 | COc1ccc2c(c1)C(CC(C)=O)N(c1ccc(-c3cccs3)cc1)C(c1ccsc1)=C2 (stereo not drawn) | active: 3.66 µM
8 | Cc1ccc(S(=O)(=O)N2CCN(c3ncnc4sccc34)CC2)cc1 | active: 7.31 µM
9 | O=C(CN(CCO)c1ccccc1)Nc1cccc(S(=O)(=O)N2CCCC2)c1 | active: 18.4 µM
10 | O=C(CSc1cn(CCNC(=O)c2ccccc2)c2ccccc12)NCc1ccco1 | active: 25.9 µM
11 | COc1cccc(CNC(=O)C2=C(C)C(=O)OC23CCN(C(C)=O)CC3)c1OC | inactive
12 | Cc1cc(NC(=O)CSc2nc3ccccc3[nH]2)no1 | inactive
13 | CN(C)c1cccc(C(=O)N2CCC(c3c[nH]c4ccccc34)(c3c[nH]c4ccccc34)CC2)c1 | inconclusive [inhibitor, single point]
14 | Cc1cccc(CNC(=O)c2ccc(N3Cc4ccccc4Oc4ncccc43)s2)c1 | inconclusive [inhibitor, single point]
15 | O=C(N/N=C/c1ccc(Br)s1)c1cccs1 | active: 16.4 µM
16 | COc1ccc(NS(=O)(=O)c2ccc(S(=O)(=O)N3CCOCC3)cc2)cc1 | inconclusive [inhibitor, partial curve, poor fit]
17 | COc1cccc(C(=O)N2CCC(C(=O)Nc3cccc(Cl)c3)CC2)c1 | active: 10.3 µM
18 | CCCCCCN1CCN(C2CN(Cc3cn(Cc4ccccc4)nn3)S(=O)(=O)C2)CC1 (stereo not drawn) | inactive
19 | C[C@@H](C1[C@@H](O)CC2C3C=CC4C[C@@H](O)CC[C@]4(C)[C@H]3CC[C@@]21C)[C@@H]1CCCCN1 (stereo partly drawn) | active: 1.64 µM
20 | CS(=O)(=O)N1CCc2cc(C(=O)N3CCCCC3)ccc21 | inactive
21 | O=C1CCSc2ccc(Cl)cc2N1Cc1cccc(Cl)c1 | inconclusive [inhibitor, single point]
22 | CC(=O)c1ccc(NC(=S)N2CCC(Cc3ccccc3)CC2)cc1 | inactive
23 | COc1cc(/C=C(\C#N)C(=O)Nc2ccc3ccccc3c2)c([N+](=O)[O-])cc1OC | inconclusive [inhibitor, single point]
24 | Cc1oc2cc3oc(=O)c(CC(=O)N[C@H](C(=O)N[C@@H](C(=O)O)c4ccccc4)C(C)C)c(C)c3cc2c1C | inactive

Row | SMILES | Potency
25 | C=CCn1cccc(/C=C/C(=O)c2ccc(C(C)(C)C)cc2)c1=S | active: 7.31 µM
26 | CCC1Oc2ccc(C)cc2N(CC(=O)N(Cc2ccc3c(c2)OCO3)CC2CCCO2)C1=O (stereo not drawn) | inconclusive [inhibitor, single point]
27 | O=C(COCc1cc(-c2cccs2)on1)N1CCN(c2ccccc2)CC1 | inconclusive [inhibitor, partial curve]
28 | O=C(O)c1cc(S(=O)(=O)N(Cc2ccccc2)c2ccccc2)ccc1Cl | inactive
29 | COc1cc(C(=O)Nc2ccc(NC(=O)c3ccc(C(C)(C)C)cc3)cc2)cc(OC)c1OC | active: 2.91 µM
30 | COc1ccc(CNC(=O)C2CCN(S(=O)(=O)c3cccc4nsnc34)CC2)cc1 | inactive
31 | Cc1ccc(-c2nc(S(=O)(=O)c3ccc(F)cc3)c(SCC(=O)NCC3CCCO3)o2)cc1 (stereo not drawn) | inconclusive [inhibitor, full curve]
32 | CCn1c(SCC(=O)NNC(=S)Nc2ccc(C)cc2)nnc1-c1ccc(Cl)cc1 | inconclusive [inhibitor, partial curve, poor fit]
33 | COc1ccc(S(=O)(=O)N2CCC3CC2c2cc(-c4ccc5c(c4)OCO5)ccc23)cc1 (stereo not drawn) | inconclusive [inhibitor, partial curve]
34 | Cc1ccc2nsnc2c1NC(=O)CCl | inconclusive [inhibitor, single point]
35 | CC1Cc2cc(S(=O)(=O)N3CCCCC3)ccc2N1C(=O)C1CCC1 (stereo not drawn) | active: 20.6 µM
36 | O=C1C[C@H]2C=CCc3cccc(c32)CN1Cc1ccc(Cl)cc1 | inconclusive [inhibitor, single point]
37 | COc1ccc(-c2cc(=O)c3c(C)cc(O)cc3o2)cc1 | inconclusive [inhibitor, single point]
38 | O=C1NC[C@H](c2ccccc2)N(CCCCC2CCCCC2)C1=O | inconclusive [inhibitor, single point]
39 | Fc1ccc(NCc2nnc3n2CCCCC3)cc1Cl | inactive
40 | CCc1nc2ccc(C(=O)NCCc3ccccn3)cn2c1N(CC)Cc1cccc(Br)c1 | active: 8.2 µM
41 | Cc1cccc(NC(=O)c2nc[nH]c2C(=O)N2CCN(C(=O)OC(C)(C)C)CC2)c1 | active: 20.6 µM
42 | O=C1C(C2=NC(C(=O)O)C3C(=O)N(c4ccccc4)C(=O)C23)=C(O)c2ccccc21 (stereo not drawn) | inactive
43 | COc1cc(C)nc(N(Cc2ccccc2)S(=O)(=O)c2ccccc2)n1 | inconclusive [inhibitor, single point]
44 | COc1cccc(/C=C/C(=O)OCC(=O)Nc2nnc(-c3ccccc3)o2)c1 | inactive
45 | COc1cc(Cl)c(C)cc1NC(=O)CC1CCCC1 | inactive
46 | COC1CCCN(C(=O)c2ccc3nc(Cc4cccc(Cl)c4)oc3c2)C1 (stereo not drawn) | inactive
47 | CCN1CCN(C(=O)c2cc(S(=O)(=O)N3CC(C)CC(C)C3)ccc2Cl)CC1 (stereo not drawn) | inconclusive [inhibitor, single point]
48 | CCOC(=O)c1sc(NC(=O)/C=C/c2cnn(C)c2C)c(C(=O)OC(C)C)c1C | inconclusive [inhibitor, single point]
